# In the supplement of paper PMC10338343:
# ± gives the standard deviation. Only a part is listed here, and it is no random draw.
# Test system: MIWI (PIWIL1) piRISC loaded with L1MC piRNA (30 nt)
# Assay: pre-steady-state target cleavage rate (min^-1); MIWI and MILI are mouse PIWI proteins and EfPiwi is from a freshwater sponge; tags in brackets are library labels; higher = faster piRNA-guided slicing of the target
# Details: guide: L1MC piRNA 5'p-UAACUAAAUACUAUGCAAGCUGUAGGUCCU; auxiliary factor: 500 nM mouse GTSF1
# Protocol: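 Cleave-'n-Seq: a library of target RNAs (target site embedded in constant flanks, ACAGCATTCCGCGTTAGTGATATCCG... 5' flank; DNA-blocked outside the site) at 0.1 nM was incubated with 1 nM active mouse MILI or MIWI piRISC (synthetic 5'-monophosphorylated piRNA guide) with or without 500 nM mouse GTSF1 at 33 °C for 1 min to 16 h. Uncleaved targets were sequenced and normalised to non-target controls, and the pooled three trials were fitted to a burst-and-steady-state model to give the pre-steady-state cleavage rate (min^-1; k3 is constrained to at most 1e-4). Sequence is the target site only; target names encode pairing extent (gX:gY) and contiguous / 1-mismatch / 2-mismatch / bulge geometry. Fits with R² ≤ 0 are excluded.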
row,Sequence,pre-steady-state target cleavage rate
1,UCCUCCUACACUUGCAUAGUAUUUAGUUA,0.959 ± 0.044
2,UGGACCUACAGCUUGCAUAGUAUUUAGCUA,0.0122 ± 0.0041
3,UCCUGGAUGUCCUUGCAUAGUAUUUAGCUUA,0.0471 ± 0.0091
4,UCCUGGAUGUGCUUGCAUAGGAUUUAGUUA,0.00451 ± 0.0028
5,UCCUCCUAACAGCUUGCAUAGUAUUUAGUUA,0.591 ± 0.025
6,UCCACCUACAGCUUGGUUAGUAUUUAGAAA,0.248 ± 0.048
7,UCCUGCUUCAGCUUGCAUAGUAUUUUGUUA,0.737 ± 0.034
8,UCCACCUACAGCUUCCAUAGUAUUUACAAA,0.0165 ± 0.008
9,UGGACCUAGAGCUUGCAUACUAUUUAGUUA,0.218 ± 0.014
10,UCCUGGAUGUCGUUGCAUAGUAUUUAGUUU [g2:g18:cont:t1U],0.0132 ± 0.0047
11,UCGAGCUACAGCUUGCAUAGAAUUUAGUUA,0.431 ± 0.034
12,UCCUGGAUCAGCUUGCAUAGUAUAAAGUUA,0.414 ± 0.032
13,UGGUCCUACAGCUUGCAUAGUAUUUUCAAA,0.258 ± 0.04
14,UCCUGGAUGAGCAAGCAUAGUAUUUAGUUA,0.11 ± 0.012
15,UCCACCUACAGGUUGCAUUGUAUUUAGUUA,0.657 ± 0.038
16,AGGACCUACAGCUUGCAAAGUAUUUUGUUA,0.836 ± 0.071
17,UGCUCCUACAGCUUGCAUAGUAUUUACAAA,0.331 ± 0.047
18,AGGACCUUGAGCUUGCAUAGUAUUUAGAAA,0.335 ± 0.04
19,UCCUGGAACAGCUUGGAUAGUAUUUACAAA,0.0181 ± 0.0059
20,UGGACCAACAGCUUGCAUAGUUUUUAGUUA,0.398 ± 0.019
21,UCCUGGAUCAGCUUGCAUAGUAUAUACUUA,0.0572 ± 0.01

# Same assay, conditions: guide: L1MC piRNA 5'p-UAACUAAAUACUAUGCAAGCUGUAGGUCCU; auxiliary factor: none (no GTSF1)
row,Sequence,pre-steady-state target cleavage rate
1,UCCUCCUACACUUGCAUAGUAUUUAGUUA,0.0195 ± 0.0048
2,UGGACCUACAGCUUGCAUAGUAUUUAGCUA,0.00548 ± 0.002
3,UCCUGGAUGUCGAACGUAUCUAUUUAUUA,< 0.0001
4,UCCUGGAUGUCCUUGCAUAGUAUUUAGCUUA,0.00476 ± 0.0022
5,UCCUGGAUGUGCUUGCAUAGGAUUUAGUUA,0.00354 ± 0.0033
6,UCCUCCUAACAGCUUGCAUAGUAUUUAGUUA,0.0508 ± 0.0092
7,UCCUGCUUCAGCUUGCAUAGUAUUUUGUUA,0.037 ± 0.0071
8,UGGACCUAGAGCUUGCAUACUAUUUAGUUA,0.0236 ± 0.006
9,UCCUGGAUGUCGUUGCAUAGUAUUUAGUUU [g2:g18:cont:t1U],0.00361 ± 0.0031
10,UCGAGCUACAGCUUGCAUAGAAUUUAGUUA,0.0269 ± 0.0071
11,UCCUGGAUCAGCUUGCAUAGUAUAAAGUUA,0.0131 ± 0.005
12,UGGUCCUACAGCUUGCAUAGUAUUUUCAAA,0.00588 ± 0.0032
13,UCCUGGAUGAGCAAGCAUAGUAUUUAGUUA,0.00317 ± 0.0017
14,UCCACCUACAGGUUGCAUUGUAUUUAGUUA,0.0139 ± 0.0028
15,AGGACCUACAGCUUGCAAAGUAUUUUGUUA,0.0148 ± 0.0028
16,UGCUCCUACAGCUUGCAUAGUAUUUACAAA,0.00421 ± 0.0024
17,AGGACCUUGAGCUUGCAUAGUAUUUAGAAA,0.0105 ± 0.0044
18,UGGACCAACAGCUUGCAUAGUUUUUAGUUA,0.0421 ± 0.0087
19,UCCUGGAUCAGCUUGCAUAGUAUAUACUUA,0.00554 ± 0.0023
